{"source": "paper PMC9458455", "about": "(Nucleic Acids Research, 2022)", "proteins": {"B1": {"name": "translation elongation factor eEF1Bγ, full-length human (natural protein)", "chain": "not shown"}}, "key": {"[1]": {"biological_target": "the molecule itself", "experiment": "AUC"}, "[2]": {"biological_target": "the molecule itself", "experiment": "AUC", "remark": "listed apart in the source"}}, "note": "Like-named read-outs stand apart in the source and are kept apart here."}
{"protein": "B1", "values": [{"measurement": "stoichiometry N", "setting": "[1]", "value": 2}, {"measurement": "stoichiometry N", "setting": "[2]", "value": 4}]}
